PubChem BioAssay AID588855 (National Center for Advancing Translational Sciences (NCATS), 2011)
In all, about 410,000 compounds went through this assay and about 5,000 (1.2%) were called active. Inconclusive results, whose numbers are uncertain, are shown with a selection of clear calls. Calls follow the shape of the dose curve; as a rule, active = well fitted inhibition curve with a large enough effect; inconclusive = small, poorly fitted or top-dose-only effect; inactive = no such curve, though single readings can be large or run the other way. A potency beside an inconclusive call is a rough fit, not a confirmed value.

Test: qHTS for Inhibitors of TGF-b; also: nearly all actives have a fitted effect of over 65% in size
Conditions: HepG2 CAGA-GFP TGF-b/SMAD3 reporter, GFP fluorescence, 18 h, TGF-beta stimulated, 500 pg/mL final; series mostly up to 46.1 µM; activity, negative = inhibition: at the top concentration
In short: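 HEPG2 CAGA-GFP cells (1000/well, DMEM with 1% FBS) were pre-incubated 2 h at 37 degrees C, given compound by pin tool, then stimulated with TGF-beta at 500 pg/mL final for 18 h before per-cell GFP fluorescence imaging.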
% is scaled to controls: 0 for no effect and ±100 for the full control effect; potency is read from the fitted curve at half-maximal effect; tags tell the direction and shape of the fitted curve.

**Q.** With `CCN(CC)C(=O)[C@H]1C[C@H](CC(=O)NCCCn2ccnc2)C(=O)N2CCc3c([nH]c4cc(CCC(=O)N(C)C)ccc34)[C@]12C` as the molecule, how does the “activity, negative = inhibition” value read?
**A.** inactive: -1.02%

**Q.** For `Cn1nnnc1SCC(=O)N1CCN(C(c2ccccc2)c2ccccc2)CC1`, which Potency is on record?
**A.** inconclusive: 5.62 µM [inhibitor, partial curve, poor fit]

**Q.** Which Potency does the source give for `COc1cccc(Cn2nnc(C(=O)NCCc3ccc(Cl)cc3)c2N)c1` here?
**A.** inconclusive: 35.5 µM [inhibitor, single point]

**Q.** Which Potency does the source give for `Cc1cc(Oc2ccc(Cl)cc2)nc(-c2ccccn2)n1` here?
**A.** inconclusive: 2.51 µM [inhibitor, full curve, poor fit]

**Q.** Which Potency does the source give for `O=C(CSc1nc2c([nH]c3ccccc32)c(=O)n1-c1ccccc1F)Nc1cccc(C(F)(F)F)c1` here?
**A.** inconclusive: 25.1 µM [inhibitor, single point]

**Q.** For `Cc1ccc(C(=O)N/C(=C\c2ccco2)C(=O)NCCN2CCOCC2)cc1C`, which “activity, negative = inhibition” value is on record?
**A.** inactive: -5.51%

**Q.** Which “activity, negative = inhibition” value does the source give for `COC(=O)c1cc(-c2ccc(OC)cc2)n[nH]1` here?
**A.** inactive: 1.05%

**Q.** For `CCC(NC(=O)c1cc(COc2cc(C)c(Cl)c(C)c2)on1)c1ccncc1` (configuration not stated), which Potency is on record?
**A.** inconclusive: 35.5 µM [inhibitor, single point]

**Q.** With `CCN1CCN(c2oc(COc3ccc(-c4ccccc4)cc3)nc2C#N)CC1` as the molecule, how does the Potency read?
**A.** inconclusive: 12.6 µM [inhibitor, single point]

**Q.** With `CN(c1cccc(NC(=O)Nc2cccc(Cl)c2)c1)S(C)(=O)=O` as the molecule, how does the Potency read?
**A.** inconclusive: 20 µM [inhibitor, single point]

**Q.** Which Potency does the source give for `Cn1c(=O)c2c(nc(NCCc3ccccc3)n2Cc2ccc(F)cc2)n(C)c1=O` here?
**A.** inconclusive: 20 µM [inhibitor, partial curve, poor fit]

**Q.** Which Potency does the source give for `COCCOC(=O)c1c(C)oc2ccc(NS(=O)(=O)c3ccc(F)cc3)cc12` here?
**A.** inconclusive: 35.5 µM [inhibitor, single point]

**Q.** For `Cc1cc(O)c(C(C)C)cc1NC(=O)Nc1cccc2ccccc12`, which Potency is on record?
**A.** inconclusive: 12.6 µM [inhibitor, partial curve, poor fit]

**Q.** Which Potency does the source give for `COc1ccc(S(=O)(=O)Nc2cc3c4c(oc3c3ccccc23)CCCC4=O)cc1` here?
**A.** inconclusive: 25.1 µM [inhibitor, single point]

**Q.** Which Potency does the source give for `Cc1c(NC(=O)c2c(F)cccc2F)c(=O)n(-c2ccccc2)n1C` here?
**A.** inconclusive: 11.2 µM [inhibitor, partial curve, poor fit]

**Q.** With `Cc1ccc(NC(=O)c2nc[nH]c2C(=O)NC2CCN(C(=O)OC(C)(C)C)CC2)cc1` as the molecule, how does the “activity, negative = inhibition” value read?
**A.** inactive: 6.68%

**Q.** With `COc1ccc(/C=C/C(=O)c2ccc[nH]2)cc1OC` as the molecule, how does the “activity, negative = inhibition” value read?
**A.** inactive: 26.5%

**Q.** Which “activity, negative = inhibition” value does the source give for `CCc1nnc(NC(=O)CSc2nc3cccnc3n2C2CCCCC2)s1` here?
**A.** inactive: -15.2%

**Q.** With `CC(C)C(OC(=O)c1cc2sccc2n1C)C(=O)NCC1CCCO1` (configuration not stated) as the molecule, how does the Potency read?
**A.** inconclusive: 0.794 µM [inhibitor, full curve]

**Q.** With `CSc1ncccc1C(=O)Nc1cccc(S(=O)(=O)N2CCCCC2)c1` as the molecule, how does the “activity, negative = inhibition” value read?
**A.** inactive: -0.0082%

**Q.** Which Potency does the source give for `CCN(Cc1ccccc1)C(=O)C1CCN(S(=O)(=O)c2ccc3c(c2)OCCO3)CC1` here?
**A.** inconclusive: 11.2 µM [inhibitor, partial curve, poor fit]

**Q.** Which “activity, negative = inhibition” value does the source give for `COc1ccc(N(C=O)C(=S)SC)cc1` here?
**A.** inactive: -17.2%

**Q.** For `CSc1ncccc1C(=O)OCc1ccc(Br)cc1`, which Potency is on record?
**A.** inconclusive: 35.5 µM [inhibitor, single point]

**Q.** With `COc1cccc(/C=N/NC(=O)c2c(-c3ccccc3)noc2C)c1OC` as the molecule, how does the Potency read?
**A.** inconclusive: 2.82 µM [inhibitor, partial curve]

**Q.** With `Cc1[nH]c2ccccc2c1C1(O)C(=O)N(Cc2ccccc2)c2ccc(Cl)cc21` (configuration not stated) as the molecule, how does the Potency read?
**A.** inconclusive: 28.2 µM [inhibitor, single point]

**Q.** With `COc1ccc(N/C(N)=N/c2nc(C)cc(=O)[nH]2)cc1` as the molecule, how does the “activity, negative = inhibition” value read?
**A.** inactive: 8.2%

**Q.** With `CC(C)S(=O)(=O)c1ccc(C(=O)Nc2ccc(F)cc2F)cn1` as the molecule, how does the Potency read?
**A.** inconclusive: 10 µM [inhibitor, partial curve, poor fit]

**Q.** For `COc1ccc(-c2nnc(NC(=O)c3ccc(S(=O)(=O)N4CCCc5ccccc54)cc3)o2)cc1`, which Potency is on record?
**A.** inconclusive: 35.5 µM [inhibitor, single point]

**Q.** For `COC(=O)c1ccc2nc(-c3ccc(OC)c(OC)c3)c(Cc3ccc(OC)cc3C)n2c1`, which Potency is on record?
**A.** inconclusive: 35.5 µM [inhibitor, single point]

**Q.** Which “activity, negative = inhibition” value does the source give for `COc1ccc(-c2nnc(SC(C)C(=O)O)o2)cc1` (configuration not stated) here?
**A.** inactive: -4.66%

**Q.** For `CC(C)CN(C(=O)CSc1nncs1)c1c(N)n(CC(C)C)c(=O)[nH]c1=O`, which Potency is on record?
**A.** inconclusive: 20 µM [inhibitor, single point]

**Q.** With `CCOC(=O)Cc1nnc(Nc2ccc(C)cc2)c2ccccc12` as the molecule, how does the Potency read?
**A.** inconclusive: 5.01 µM [inhibitor, full curve, poor fit]

**Q.** Which Potency does the source give for `COc1ccc(/C=C/CN2CCCC(CCC(=O)NCc3ccc(F)c(F)c3)C2)cc1` (configuration not stated) here?
**A.** inconclusive: 28.2 µM [inhibitor, single point]

**Q.** Which Potency does the source give for `COc1ccccc1NS(=O)(=O)c1cc(C(=O)N2CCN(C/C=C/c3ccccc3)CC2)ccc1C` here?
**A.** inconclusive: 35.5 µM [inhibitor, single point]

**Q.** With `Cc1c(Br)c(=O)oc2c(Br)c(O)c(O)cc12` as the molecule, how does the Potency read?
**A.** inconclusive: 25.1 µM [inhibitor, single point]

**Q.** With `O=C(Nc1ccccc1Cl)[C@H](CSCc1ccccc1)N1Cc2ccccc2C1=O` as the molecule, how does the Potency read?
**A.** inconclusive: 31.6 µM [inhibitor, single point]

**Q.** Which Potency does the source give for `Cc1ccc(NC(=O)COC(=O)c2c(-c3ccccc3)noc2C)c(C)c1` here?
**A.** inconclusive: 35.5 µM [inhibitor, single point]

**Q.** With `OC(c1ccccc1)(c1nc(-c2ccc(Cl)cc2)cs1)C(F)(F)F` (configuration not stated) as the molecule, how does the Potency read?
**A.** inconclusive: 22.4 µM [inhibitor, single point]

**Q.** For `Cc1ccc(NC(=O)Cc2ccccc2F)cc1S(=O)(=O)N1CCCCCC1`, which Potency is on record?
**A.** active: 11.2 µM

**Q.** For `NC(=O)c1c(NC(=O)CN2CCN(S(=O)(=O)c3ccccc3)CC2)sc2c1CCC2`, which Potency is on record?
**A.** inconclusive: 35.5 µM [inhibitor, single point]

**Q.** For `Cc1ccc(S(=O)(=O)NCCC(=O)OCC(=O)N(Cc2ccccc2)C(C)(C)C)cc1C`, which Potency is on record?
**A.** inconclusive: 35.5 µM [inhibitor, single point]

**Q.** Which Potency does the source give for `Nc1c(C(=O)NCc2ccco2)c2nc3ccccc3nc2n1CCc1ccccc1` here?
**A.** inconclusive: 22.4 µM [inhibitor, single point]

**Q.** With `N#CCC(=O)N/N=C/c1ccc(N2N=C(c3ccccc3)CC2c2ccccc2)cc1` (configuration not stated) as the molecule, how does the “activity, negative = inhibition” value read?
**A.** inactive: 32.8%

**Q.** For `COc1ccc(C[C@H]2CN3C(=NC[C@@H]3Cc3ccccc3)N2CCNC(=O)c2ccc(C)c(Br)c2)cc1`, which Potency is on record?
**A.** inconclusive: 25.1 µM [inhibitor, single point]

**Q.** For `COCCNC(=O)C(c1ccc(C)cc1)N(Cc1ccco1)C(=O)CCC(=O)Nc1ccccn1` (configuration not stated), which “activity, negative = inhibition” value is on record?
**A.** inactive: -9.54%

**Q.** For `CC1=NN2C(=N)/C(=C\c3cc(C)n(-c4ccccc4)c3C)C(=O)N=C2S1`, which “activity, negative = inhibition” value is on record?
**A.** inactive: 0.263%

**Q.** For `COc1ccc(-c2cc(-c3ccc(Cl)cc3)n[nH]2)c(O)c1`, which Potency is on record?
**A.** inconclusive: 20 µM [inhibitor, single point]

**Q.** Which “activity, negative = inhibition” value does the source give for `CC(C)(C)c1ccc(OCCC(=O)OCC(=O)Nc2cccnc2Cl)cc1` here?
**A.** inactive: 24.6%

**Q.** For `CCc1cccc(NC(=S)N(CCOC)C(C)c2ccco2)c1` (configuration not stated), which Potency is on record?
**A.** inconclusive: 35.5 µM [inhibitor, single point]

**Q.** Which Potency does the source give for `Nc1ncnc2c1nc(Cl)n2[C@@H]1O[C@H](CO)[C@@H](O)[C@@H]1O` here?
**A.** inconclusive: 7.94 µM [inhibitor, partial curve, poor fit]

**Q.** Which Potency does the source give for `CCCCN(CCCC)Cc1cc(=O)oc2ccc3ccccc3c12` here?
**A.** inconclusive: 28.2 µM [inhibitor, single point]

**Q.** For `O=P(O)(O)c1cc(-c2ccccc2)oc1-c1ccccc1`, which “activity, negative = inhibition” value is on record?
**A.** inactive: 15.6%

**Q.** For `CCc1ccccc1-n1cnc2cc(C(=O)NC3CCCCCC3)ccc21`, which Potency is on record?
**A.** inconclusive: 35.5 µM [inhibitor, single point]

**Q.** For `Cc1ccc(-n2c(SCC(=O)NCCN3C(=O)CSC3=O)nnc2-c2ccccc2F)cc1`, which Potency is on record?
**A.** inconclusive: 3.55 µM [inhibitor, partial curve, poor fit]

**Q.** With `COc1ccc(NC(=O)c2c(Nc3ccccc3)sc(C(=O)c3ccc(F)cc3)c2N)cc1` as the molecule, how does the Potency read?
**A.** active: 3.16 µM

**Q.** Which “activity, negative = inhibition” value does the source give for `COc1ccccc1-n1cc(C(=O)c2cc(Cl)ccc2O)cc(C#N)c1=O` here?
**A.** inactive: 20.5%

**Q.** With `O=C1CSCN1c1cc(Cl)ccc1Cl` as the molecule, how does the “activity, negative = inhibition” value read?
**A.** inactive: 5.85%

**Q.** For `CCc1ccc2occ(CC(=O)Nc3ccc(OC)c(Cl)c3)c2c1`, which Potency is on record?
**A.** inconclusive: 35.5 µM [inhibitor, single point]

**Q.** For `CC(/C=C/c1ccccc1)=N\Nc1nc(C)cc(C)n1`, which Potency is on record?
**A.** inconclusive: 4.47 µM [inhibitor, full curve, poor fit]

**Q.** For `CCCCCC(=O)N1C[C@H](n2cc(-c3ccc(F)cc3)nn2)[C@@H](O)C[C@@H]1c1ccc(OC)cc1`, which “activity, negative = inhibition” value is on record?
**A.** inactive: -16.4%

**Q.** With `Cc1nc(SCC(=O)Nc2ccc(C)c(Cl)c2)cc(-c2ccccc2)n1` as the molecule, how does the Potency read?
**A.** active: 10 µM

**Q.** For `O=C(Cc1ccc(S(=O)(=O)N2CCOCC2)s1)N1CCN(S(=O)(=O)c2ccc(Cl)cc2)CC1`, which Potency is on record?
**A.** inconclusive: 35.5 µM [inhibitor, single point]

**Q.** With `O=C(NCC1CCCO1)c1ccc([N+](=O)[O-])s1` (configuration not stated) as the molecule, how does the “activity, negative = inhibition” value read?
**A.** inactive: -18.9%

**Q.** With `CC(=O)C1=C(c2cccc([N+](=O)[O-])c2)N(C(C)=O)n2c(nnc2-c2ccc(C)cc2)S1` as the molecule, how does the “activity, negative = inhibition” value read?
**A.** inactive: 4.94%

**Q.** With `CCOC(=O)c1c(S(=O)(=O)N2CCCC(C(=O)N3CCN(c4cc(C)ccc4C)CC3)C2)c(C)n(C)c1C` (configuration not stated) as the molecule, how does the Potency read?
**A.** inconclusive: 1.41 µM [inhibitor, partial curve, poor fit]

**Q.** With `Cc1ccc(F)c(S(=O)(=O)NC(=O)C2(C)CCN2C(=O)c2ccccc2)c1` (configuration not stated) as the molecule, how does the “activity, negative = inhibition” value read?
**A.** inactive: 5.67%

**Q.** For `CC(=O)Nc1ccc(S(=O)(=O)NCCC(=O)OCC(=O)c2ccc(Br)cc2)cc1`, which Potency is on record?
**A.** inconclusive: 10 µM [inhibitor, partial curve]
